This passage reports self-cleavage results from the RNAGym collection of RNA variant scans (doi:10.7554/elife.90254).

The labels stand for the following.
B1: LINE1-mini (parent)
chain: GGCAGAGCUCAACACAGCGUGGCAAAGUGGCUGUGGCUAGACUGCC

The source gives no read counts; variants with many changes may rest on few reads.

Variants of B1 are the subject of the series. As to the kind of experiment: self-cleavage, relative activity (ratio to wild type); higher = more cleavage; in vitro, sequencing; the parent is a self-cleaving ribozyme.
As to GGCAGAGCUCAACACAGCGUUGCGAAGUGGCUGUGGUUAGACUGCC [G21U A24G C37U], the self-cleavage came to 0.03.
On to GGCAGAGCUCAACACAGCGUUGCAACGUGGCUGUGGCUAGACUGCA [G21U A26C C46A], for which the self-cleavage was found to be 1.43.
On to GGCAGAGCUCAACACAGCGUCGCAAAGUGGCUGUGGCGAGUCUGCC [G21C U38G A41U], for which the self-cleavage was found to be 0.
The same measure for GGCAGAGCUCAACACAGCGUUGCAAAGUCGCUGUGCCUAGACUUCC [G21U G29C G36C G44U]: 0.05; for GGCAGAGCUCAACACAGCGUCGCAAAGUGGCUGGGGUUAGACCGCG [G21C U34G C37U U43C C46G]: 0.04; for GGCAGAGCUCAACACAGCGUUGCAAAGUGCCUGUGGCUAAACGGAC [G21U G30C G40A U43G C45A]: 0.03.
Then GGCAGAGCUCAACACAGCGUUGCAAAGUCGCUGUGGCUAGACUGGC [G21U G29C C45G], with 1; and GGCAGAGCUCAACACAGCGUCGCAAAGUGGCUGGGACUAGCCUGCC [G21C U34G G36A A41C], with 0.04; and GGCAGAGCUCAACACAGCGUUCCAAAGUGGCUGUGGCUUCCCUGCC [G21U G22C A39U G40C A41C], with 0.15.
For the variant GGCAGAGCUCAACACAGCGUUGCUAAGUGGCUGUGGCGAGACUGCC [G21U A24U U38G], the self-cleavage is 0.03.
Consider GGCAGAGCUCAACACAGCGUUCCAAAGUGGCUGAGACCAGACUGCC [G21U G22C U34A G36A U38C], for which the self-cleavage amounted to 0.1.
On to GGCAGAGCUCAACACAGCGUUGCAAAGUGGCUGUGGCUUCACUGCC [G21U A39U G40C], for which the self-cleavage came out at 0.14.
On to GGCAGAGCUCAACACAGCGUUGCAAAGUGGAUGUGGCUAUACUGCC [G21U C31A G40U], for which the self-cleavage stood at 0.03.
GGCAGAGCUCAACACAGCGUUGCAUAGUGGCUGUGGAUAGACUGCC [G21U A25U C37A]: the self-cleavage was 0.05.
The same measure for GGCAGAGCUCAACACAGCGUUGCAACGUGGCUGUAGCUAGACUGCC [G21U A26C G35A]: 0.07; for GGCAGAGCUCAACACAGCGUUGCAAUGUGGCUGUUGCUAGACUGCC [G21U A26U G35U]: 0.02; for GGCAGAGCUCAACACAGCGUUGCACAGUAGCUGUGGCUAGACUGCC [G21U A25C G29A]: 0.6.
Then GGCAGAGCUCAACACAGCGUUGCGAAGUGCCUGUGGCUAGACUGCC [G21U A24G G30C], with 2.76; and GGCAGAGCUCAACACAGCGUUGCGAAGUUGCUGUGGCUAGUCUGCC [G21U A24G G29U A41U], with 0.15.
The same measure for GGCAGAGCUCAACACAGCGUCGCAAAGUGGCUGAGGCUAGACUGCG [G21C U34A C46G]: 0.18; for GGCAGAGCUCAACACAGCGUCGCAAAGUGGCUGUGGCGAGAGAGCC [G21C U38G C42G U43A]: 0.02.
Consider GGCAGAGCUCAACACAGCGUUGCAAAGUGGCUGUGGGUAGAGUGCC [G21U C37G C42G], for which the self-cleavage was 0.04.
The same measure for GGCAGAGCUCAACACAGCGUUGCUACGUGGCUGUGGCUAGACUGCC [G21U A24U A26C]: 1.2.
Then GGCAGAGCUCAACACAGCGUUGCAAAAAGGCUGUGGCUAGACUGCC [G21U G27A U28A], with 0.45; and GGCAGAGCUCAACACAGCGUUGCAAGGUCGCUGUGGCUAGACUGCC [G21U A26G G29C], with 0.55.
Then GGCAGAGCUCAACACAGCGUUGCUAAGUGGCUGAGGCUAGACUGCC [G21U A24U U34A], with 0.06; and GGCAGAGCUCAACACAGCGUUGCAAAGUGGGUGUGGCUAGACUGUC [G21U C31G C45U], with 0.02.
As to GGCAGAGCUCAACACAGCGUUGCAAAAUGGCUGUGGCUGGACUGCC [G21U G27A A39G], the self-cleavage turned out to be 0.03.
The same measure for GGCAGAGCUCAACACAGCGUUGCAAAGUCGCUGUGGCUAUACUGCC [G21U G29C G40U]: 0.03; for GGCAGAGCUCAACACAGCGUUGUAAAGUGGCUGUGGCUAAAAUUUC [G21U C23U G40A C42A G44U C45U]: 0.02; for GGCAGAGCUCAACACAGCGUUGCAAACUGGCUGUGGUUAGACUGUC [G21U G27C C37U C45U]: 0.02.
Then GGCAGAGCUCAACACAGCGUUGCAAACUGGCUGUGGAUAGACUGCC [G21U G27C C37A], with 0.05; and GGCAGAGCUCAACACAGCGUUGCAAAGUGGCUGUGGAUAGACCGCC [G21U C37A U43C], with 0.03.
Then GGCAGAGCUCAACACAGCGUUGCAAAAUGGCUGUGGCUAGAAUGCC [G21U G27A C42A], with 0.12; and GGCAGAGCUCAACACAGCGUUGCAAAGUUGCUGUGGCUAGAUUGCC [G21U G29U C42U], with 0.51.
For GGCAGAGCUCAACACAGCGUUGCAAAGUGGAUCUGGCUAGACGUCC [G21U C31A G33C U43G G44U], the self-cleavage is 0.01.
With GGCAGAGCUCAACACAGCGUUGCAAAGUGGUUGUGGCUGGACUGCC [G21U C31U A39G], the self-cleavage turned out to be 0.03.
Then GGCAGAGCUCAACACAGCGUUGCAAAGUGCCUGUCGCUCGACUGCC [G21U G30C G35C A39C], with 0.06; and GGCAGAGCUCAACACAGCGUUGCAUAGCGGCUGUGGCUAGACUGCC [G21U A25U U28C], with 1.44.
Take GGCAGAGCUCAACACAGCGUUGCAAAAUGGCUGUGUCUAGACUGCC [G21U G27A G36U]: the self-cleavage is 0.08.
Regarding GGCAGAGCUCAACACAGCGUUGCAAAGUGGUUGUGGCUAGACUCCC [G21U C31U G44C], the self-cleavage worked out at 0.09.
On to GGCAGAGCUCAACACAGCGUUGAAAAGUGGCUGUGGCUAGACUGUC [G21U C23A C45U], for which the self-cleavage was determined as 0.96.
In the case of GGCAGAGCUCAACACAGCGUUGCCAAGUGGCCGUGGCUACACUGCU [G21U A24C U32C G40C C46U], the self-cleavage was 0.01.
In the case of GGCAGAGCUCAACACAGCGUUGCUAAGUGGCUGUGUCUAGACUACC [G21U A24U G36U G44A], the self-cleavage worked out at 0.07.
The same measure for GGCAGAGCUCAACACAGCGUUGAAAAGUGGCUGGGGCUAGACUGCC [G21U C23A U34G]: 0.71; for GGCAGAGCUCAACACAGCGUUAAAAAGUGGCUGUGGCUAGACUGCC [G21U G22A C23A]: 1.03; for GGCAGAGCUCAACACAGCGUUGCAAACUGGCUGUGGCUAGAUUGCC [G21U G27C C42U]: 0.29.
Then GGCAGAGCUCAACACAGCGUUGCAAUGUGGCUGUGGCUAUACUGCC [G21U A26U G40U], with 0.2; and GGCAGAGCUCAACACAGCGUUGCAAAGUGGAUGUUGCUAGACUGCC [G21U C31A G35U], with 0.08.
The same measure for GGCAGAGCUCAACACAGCGUUGCAAAGUUGCUGUAGCUAGACUGCC [G21U G29U G35A]: 0.18; for GGCAGAGCUCAACACAGCGUUCCAAAGUGGCUGUGGGUAUACUGCG [G21U G22C C37G G40U C46G]: 0.08.
GGCAGAGCUCAACACAGCGUUGCAAAGUUGCUGUGGCUUGACUGCC [G21U G29U A39U]: the self-cleavage amounted to 0.19.
The same measure for GGCAGAGCUCAACACAGCGUUGCAAAGUGGAUGUGGGAAGACCGCC [G21U C31A C37G U38A U43C]: 0.04; for GGCAGAGCUCAACACAGCGUUACAAACUGGCUGUGGCUAAACUGCC [G21U G22A G27C G40A]: 0.09.
Turning to GGCAGAGCUCAACACAGCGUUGCAAAGUGACUGUGGAUAGACUGCC [G21U G30A C37A], the self-cleavage stood at 0.01.
For the variant GGCAGAGCUCAACACAGCGUUGCCAAGUGGCUGUGGCCAGACUGCC [G21U A24C U38C], the self-cleavage was 0.14.
